Experimental findings from PubChem BioAssay AID1745853 (National Center for Advancing Translational Sciences (NCATS), 2022) are described below.

This is one part of the list. Shown are side measurements of this screen, not its main read-out; they come without a call.

Experiment in all cases: Primary Screen for Target Class Profiling of Small Molecule Inhibitors of Methyltransferases
The target in test [1] is Glycine N-methyltransferase (Homo sapiens) (UniProt Q14749). To be noted: purified enzyme, MTase-Glo SAH luminescence; measured here: GNMT inhibition; at 40 µM; stronger effect = lower value. Put shortly:
(§1)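 Each enzyme was reacted with SAM and its substrate, with compounds tested once at 40 uM; SAH formed was read by MTase-Glo luminescence.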

The target in test [2] is Guanidinoacetate N-methyltransferase (Homo sapiens) (UniProt Q14353). To be noted: purified enzyme, MTase-Glo SAH luminescence; measured here: GAMT inhibition; at 40 µM; stronger effect = lower value. Put shortly: as §1
Test [3] has as its target Histamine N-methyltransferase (Homo sapiens) (UniProt P50135). The settings on record: purified enzyme, MTase-Glo SAH luminescence; measured here: HNMT inhibition; at 40 µM; stronger effect = lower value. Put shortly:
as §1

In test [4] the target is Nicotinamide N-methyltransferase (Homo sapiens) (UniProt P40261). The settings on record: purified enzyme, MTase-Glo SAH luminescence; measured here: NNMT inhibition; at 40 µM; stronger effect = lower value. Summed up:
as §1

The target of test [5] is Phenylethanolamine N-methyltransferase (Homo sapiens) (UniProt P11086). The settings on record: purified enzyme, MTase-Glo SAH luminescence; measured here: PNMT inhibition; at 40 µM; stronger effect = lower value. Put shortly:
as §1
% is scaled to controls: 0 for no effect and ±100 for the full control effect.

In the case of `CN1C(=O)c2cc(C(=O)NCc3ccco3)nn2CC1(C)C(=O)NCc1ccccc1` (stereo not drawn), the activity change, negative = inhibition was determined as 3.65% in test [1]; 4.87% in test [2]; 1.82% in test [3]; 4.25% in test [4]; 2.02% in test [5].

`COCCN1CC(C(=O)NCc2sc3ccccc3c2Cl)CCC1=O` (stereo not drawn): the activity change, negative = inhibition in test [1] is -1.77%; in test [2] it was 1.98%; in test [3] it was 0.644%; in test [4], -2.38%; in test [5], -8.39%.

Consider `Cc1noc2c(NCCCn3ccnc3)cc(-c3ccccn3)nc12`, for which the activity change, negative = inhibition was -15.8% in test [1]; -7.65% in test [2]; -29.9% in test [3]; -20.1% in test [4]; -3.53% in test [5].

Turning to `Cn1ccnc1C(O)c1cc2n(n1)CCN(S(=O)(=O)C1CC1)C2` (stereo not drawn), the activity change, negative = inhibition in test [1] was -1.76%; in test [2], -2.98%; in test [3], -0.971%; in test [4], -3.41%; in test [5], -2.39%.

With `Cc1nn(-c2ccccc2)c2c1C(C(C)C)N(C1CN([S+](C)(=O)[O-])C1)C2=O` (stereo not drawn), the activity change, negative = inhibition in test [1] is -3.79%; in test [2], 0.738%; in test [3] it was 0.081%; in test [4] it was 0.591%; in test [5], 1.99%.

As to `CC(C)NC(=O)Cn1nc2n(C)c(=O)c3ccc(C(=O)NC4CCCC4)cc3n2c1=O`, the activity change, negative = inhibition in test [1] was 4.54%; in test [2] it was 0%; in test [3], 3.44%; in test [4], 4.14%; in test [5], 0.385%.

For `Cn1c(=O)c2ccc(C(=O)NC3CCCCC3)cc2n2c(SCC(=O)NCc3ccccc3)nnc12`, the activity change, negative = inhibition in test [1] is 1.1%; in test [2], 1.13%; in test [3] it was 2.01%; in test [4] it was 0.009%; in test [5], 5.49%.

As for `CC(C)CCNC(=O)C1(C)Cn2nc(C(=O)NCc3ccccc3Br)cc2C(=O)N1C` (stereo not drawn), the activity change, negative = inhibition in test [1] was 0.593%; in test [2] it was 0.651%; in test [3] it was 3.84%; in test [4] it was -1.6%; in test [5], -2.4%.

As to `COc1ccc(C2(C(=O)N3CCCCCC3c3nc(C4CC4)no3)CC2)cc1` (stereo not drawn), the activity change, negative = inhibition was -0.296% in test [1]; -4.54% in test [2]; 0.134% in test [3]; -6.65% in test [4]; -1.75% in test [5].

On to `CCOc1ccc(CNS(=O)(=O)c2ccc3c(c2)n(C)c(=O)n3C)cc1OC`, for which the activity change, negative = inhibition in test [1] was -1.15%; in test [2], 4.36%; in test [3], -8.65%; in test [4], -8.99%; in test [5] it was -5.9%.

With `O=C(NCCc1c[nH]c2ccc(Cl)cc12)c1cc2n(n1)CCCN(Cc1ccc(F)cc1)C2=O`, the activity change, negative = inhibition in test [1] is -9.97%; in test [2] it was 0%; in test [3], 9.98%; in test [4], -3.88%; in test [5] it was 3.32%.

In the case of `CC(C)n1nc(-c2ccc(NC(=O)Nc3cccc(C(F)(F)F)c3)cc2)c2c(N)ncnc21`, the results for the activity change, negative = inhibition in test [2], in test [4] and in test [5] were 13.3%, -76.5% and -2.17%, respectively.

As to `Cc1ccc(N2CCN(S(=O)(=O)c3ccc4c(c3)n(C)c(=O)n4C)CC2)c(C)c1`, the activity change, negative = inhibition in test [1] is 14.5%; in test [2] it was 0%; in test [3], 10%; in test [4] it was -0.512%; in test [5] it was 6.74%.

With `CCOc1ccccc1CN1CCC[C@H]1C(=O)N1CCCCCCNC(=O)CC1`, the activity change, negative = inhibition in test [1] was -5.75%; in test [2] it was -10.1%; in test [3], -7.26%; in test [4] it was -12.9%; in test [5] it was -11.5%.

As to `CC1CCN(S(=O)(=O)c2cccc3c2C(=O)c2ccccc2C3=O)CC1`, the activity change, negative = inhibition in test [1] was -8.36%; in test [2] it was 0%; in test [3], 8.17%; in test [4] it was 0.4%; in test [5] it was -7.61%.

Regarding `O=C(CC1CC1)N1C[C@H]2OC(=O)N(CCc3cccc(Cl)c3)[C@H]2C1`, the activity change, negative = inhibition was -0.527% in test [1]; -4.27% in test [2]; 0.23% in test [3]; -8.38% in test [4]; -3.1% in test [5].

On to `O=C(c1n[nH]c2ccccc12)N1CCC(N2C(=O)C(OCC3CC3)C23CCCCC3)CC1` (stereo not drawn), for which the activity change, negative = inhibition was -24.7% in test [1]; -12.2% in test [2]; -6.18% in test [3]; -21.8% in test [4]; -13.6% in test [5].

Consider `COc1cc(Nc2ncc(F)c(Nc3ccc4c(n3)N(COP(=O)(O)O)C(=O)C(C)(C)O4)n2)cc(OC)c1OC`, for which the activity change, negative = inhibition in test [1] was -35.1%; in test [2], -14.3%; in test [3], 2.08%; in test [4], -18.9%; in test [5], -6.71%.

As for `CCOc1ccc(Cc2nc(-c3c(C)nc4ccccn34)cs2)cc1`, the activity change, negative = inhibition in test [1] was -12.2%; in test [2], -15.3%; in test [3], -3.55%; in test [4], -24.2%; in test [5], -10.4%.

With `Cc1cncc(C(=O)NC2CCN(c3ccc(=O)n(C)n3)CC2)c1`, the activity change, negative = inhibition was -2.35% in test [1]; -0.149% in test [2]; 0.472% in test [3]; -8.3% in test [4]; -4.5% in test [5].

Turning to `CNC(=O)[C@@H]1CN(C(=O)NCc2ccc(C)cc2)C[C@H]1c1nc(C)no1`, the activity change, negative = inhibition in test [1] was 0.534%; in test [2], 0.701%; in test [3], 2.43%; in test [4], -1.46%; in test [5], -0.1%.

With `COc1ccc(C(OC2OC(CO)C(O)C(O)C2O)C(C)O)cc1` (stereo not drawn), the activity change, negative = inhibition is 0.875% in test [1]; -2.94% in test [2]; 9.5% in test [3]; -16.3% in test [4]; 1.95% in test [5].

Take `CN1C(=O)c2cc(C(=O)NCCc3cccs3)nn2CC1(C)C(=O)NCc1ccccc1` (stereo not drawn): the activity change, negative = inhibition in test [1] came to 4.32%; in test [2], 0.481%; in test [3] it was 9.31%; in test [4], 0.078%; in test [5] it was 8.03%.

In the case of `COc1ccc(CCNC(=O)c2ccc3c(=O)nc4c(-c5ccccc5)n[nH]n4c3c2)cc1OC`, the activity change, negative = inhibition in test [1] is -46.5%; in test [2], -2.94%; in test [3] it was -9.15%; in test [4], -10.4%; in test [5], -11.1%.

As for `COc1ccccc1CNC(=O)CN1CCCC(CO)(CC2CC2)C1` (stereo not drawn), the activity change, negative = inhibition was -2.51% in test [1]; -3.08% in test [2]; 1.53% in test [3]; -2.84% in test [4]; -0.588% in test [5].

Turning to `CC1(C)CC2=C3C=CC4C5(C)CCC(O)C(C)(C)C5CCC4(C)C3(C)CCC2(C)C(O)C1` (stereo not drawn), the activity change, negative = inhibition was -0.463% in test [1]; -9.75% in test [2]; 3.4% in test [3]; -20.5% in test [4]; -5.23% in test [5].

On to `Cc1nnc2n1CCC(N(C)C(=O)NC1CCCCC1)CC2` (stereo not drawn), for which the activity change, negative = inhibition in test [1] was -5.62%; in test [2], -5.98%; in test [3], -4.97%; in test [4], -8.35%; in test [5], -6.56%.

In the case of `O=C1CO[C@H]2CN(Cc3ccc4c(c3)OCO4)C[C@H]2N1Cc1ccc(F)cc1`, the activity change, negative = inhibition in test [1] was -2.72%; in test [2] it was 0.43%; in test [3], 0.424%; in test [4], -4.63%; in test [5] it was 1.11%.

As to `O=C(Cc1ccc(F)cc1)NCc1nnc2ccc(-c3ccc(Cl)cc3)nn12`, the activity change, negative = inhibition in test [1] is -0.699%; in test [2], 0.566%; in test [3] it was 0.924%; in test [4], -1.79%; in test [5], -4.39%.

Regarding `COc1ccc(Cl)cc1NC(=O)Cn1c(=O)oc2cc(S(=O)(=O)N3CCCC3)ccc21`, the activity change, negative = inhibition in test [1] is -10.3%; in test [2] it was -0.753%; in test [3], -2.56%; in test [4], -3.84%; in test [5], -8.18%.

For `CC(C)Cn1c(=O)c2ccccc2n2c(SCC(=O)NCc3ccccc3)nnc12`, the activity change, negative = inhibition in test [1] is -3.95%; in test [2], 0.657%; in test [3], -0.199%; in test [4], -2.62%; in test [5] it was -3.1%.
